Measurements reported in PubChem BioAssay (NCATS).
Values joined by “and” are separate entries in the source; they are usually repeats but may differ in a detail not shown here. Equal entries are not always repeated. This list was built around the results that the source calls inconclusive (neither active nor inactive); the mix of calls is not that of the screen. For part of these data: Potencies beside an inconclusive call are fits to weak or partial responses and may not hold up. Active and inactive are the calls of the source. Calls follow the shape of the dose curve; as a rule, active = well fitted curve in the direction sought with a large enough effect; inconclusive = small, poorly fitted or top-dose-only effect, or another doubt; inactive = no such curve, though single readings can be large; an effect the other way counts as inactive or inconclusive.

How the values were obtained:
[1] = NS1 protein of Zika virus - qHTS assay to identify small molecule inhibitors in human HEK 293 cells (AID 1347053); also: nearly all actives have a fitted effect of over 55% in size
Outline: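 In this cell-based screen, HEK 293 cultures received compound for one hour before Zika MR766 at MOI = 0.5. NS1 was quantified 24 hours later by TR-FRET, normalized to virus-free wells and infected wells.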

[2] = qHTS of pediatric cancer cell lines to identify multiple opportunities for drug repurposing: Primary screen for U-2 OS cells (AID 1347096); also: nearly all actives have a fitted effect of over 50% in size
Outline: (§1)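 Viability after 48 h compound treatment at 37C, 500-1,000 cells/well, read as ATP luminescence with CellTiter-Glo. Primary screens used 11-point (MIPE, 0.78 nM-46 µM) or 8-point (NPC, 0.59 nM-46 µM) final concentrations; follow-up screens used 11-point dilutions.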

[3] = qHTS of pediatric cancer cell lines to identify multiple opportunities for drug repurposing: Primary screen for LAN-5 cells (AID 1347100);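 as to activity change, negative = cytotoxic: plate controls were DMSO neutral control for no effect and bortezomib positive control for full effect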
Outline: as §1

[4] = Quantitative High-Throughput drug screen in 47 multiple myeloma cell lines against the NCATS MIPE library collection: Karpas417_ECACC cell viability assay (AID 1918961); conditions: Karpas417 myeloma viability, CellTiter-Glo ATP luminescence, 48 h; viability (% of DMSO): at 45.8 µM (top of the series)
Outline: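 Viability readout: CellTiter-Glo luminescence following 5 min room-temperature incubation with reagent. Prior exposure: 48 h, 37C, humidified 5% CO2, 500 cells per well.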

[5] = Quantitative High-Throughput drug screen in 47 multiple myeloma cell lines against the NCATS MIPE library collection: KHM11_PLB cell viability assay (AID 1918962); conditions: KHM11 myeloma cell viability, CellTiter-Glo ATP luminescence, 48 h; viability, % of DMSO control: at 45.8 µM (top of the series); also: nearly all actives have a fitted effect of over 35% in size
Outline: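 We plated 500 myeloma cells per well, pinned in MIPE 4.0 compounds, and incubated for 48 hours at 37C. ATP was then quantified with CellTiter-Glo, with DMSO and media-only wells defining 100% and 0%.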

[6] = Quantitative High-Throughput drug screen in 47 multiple myeloma cell lines against the NCATS MIPE library collection: OCIMY1_PLB cell viability assay (AID 1918979); also: nearly all actives have a fitted effect of over 35% in size
Outline: (§2)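 Cells were exposed to library compounds for 48 hours, after which ATP was measured by CellTiter-Glo. Signal was taken as median relative luminescence units.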

[7] = Quantitative High-Throughput drug screen in 47 multiple myeloma cell lines against the NCATS MIPE library collection: KMS34_JCRB cell viability assay (AID 1918985); also: nearly all actives have a fitted effect of over 40% in size
Outline: as §2

HaCat = test: Cytotoxic Profiling of Annotated Libraries Using Quantitative High-Throughput Screening (AID 1296008); conditions: Five cell lines viability, CellTiter-Glo ATP luminescence, 48-72 h; max response: hits give low values; also: nearly all actives have a fitted effect of over 60% in size
Outline: (§3)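 Cells exposed to compounds for 48 or 72 hr at 37 degrees Celsius. Viability read as ATP-coupled luminescence with CellTiter-Glo after 10 min at room temperature.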

MCC-13 = test: qHTS assay to identify novel small-molecules to repurpose for Merkel cell carcinoma treatment (AID 1296009); conditions: MCC and control cell lines, CellTiter-Glo viability, 72 h; series mostly up to 46 µM; also: nearly all actives have a fitted effect of over 60% in size
Outline: (§4)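 Dose-response viability screen; 72 hr exposure at 37 degree celsius; CellTiter-Glo added, 10 min room temperature, luminescence read; RLUs scaled between no-cell and DMSO wells.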

MKL-1 = test: as above; conditions: MCC and control cell lines, CellTiter-Glo viability, 72 h; activity change, negative = cytotoxicity: at 46 µM (top of the series)
Outline: as §4

MKL-2 = test: as above; conditions: MCC and control cell lines, CellTiter-Glo viability, 72 h; activity change, negative = cytotoxicity: at 46 µM (top of the series)
Outline: as §4

UISO = test: as above; conditions: MCC and control cell lines, CellTiter-Glo viability, 72 h; activity change, negative = cytotoxicity: at 46 µM (top of the series)
Outline: as §4

WaGa = test: as above; conditions: MCC and control cell lines, CellTiter-Glo viability, 72 h; series mostly up to 46 µM
Outline: as §4

SKOV3 = test: Primary qHTS to identify gynecologic anti-cancer compounds using libraries of approved drugs and bioactive compounds (AID 1345084); conditions: Gynecologic cancer cell panel viability, ATPlite luminescence, 48 h; series mostly up to 57.5 µM; also: nearly all actives have a fitted effect of over 55% in size
Outline: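 ATP-based viability (ATPlite), 1,000 cells/well, 16 h pre-incubation, 48 h compound at 37 C, 5% CO2, 15 min RT before read.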

[8] = qHTS of pediatric cancer cell lines to identify multiple opportunities for drug repurposing: Primary screen for DAOY cells (AID 1347090); conditions: DAOY medulloblastoma viability, CellTiter-Glo luminescence, 48 h; activity change, negative = cytotoxic: at 46 µM (top of the series); also: nearly all actives have a fitted effect of over 55% in size
Outline: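 Viability measured as metabolically active cells via CellTiter-Glo luminescence following 48 hours of compound exposure, 11-point dilutions in confirmatory testing. 500-1,000 cells/well plated 5 hours before dosing; controls were DMSO and 2.3 µM bortezomib.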

[9] = Quantitative High-Throughput drug screen in 47 multiple myeloma cell lines against the NCATS MIPE library collection: UTMC2_PLB cell viability assay (AID 1919868); conditions: CellTiter-Glo ATP luminescence, 48 h; viability (% of DMSO control): at 45.8 µM (top of the series); also: nearly all actives have a fitted effect of over 55% in size
Outline: as §2

KB-3-1 = test: Cytotoxic Profiling of Annotated Libraries Using Quantitative High-Throughput Screening (AID 1296008); conditions: Five cell lines viability, CellTiter-Glo ATP luminescence, 48-72 h; max response: hits give low values; also: nearly all actives have a fitted effect of over 60% in size
Outline: as §3

[10] = qHTS of pediatric cancer cell lines to identify multiple opportunities for drug repurposing: Primary screen for BT-37 cells (AID 1347094)
Outline: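 Following a 5-hour attachment period, cells at 500-1,000/well received compounds and were cultured for 48 hours. CellTiter-Glo was added and luminescence read to estimate viable, metabolically active cells.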

[11] = Quantitative High-Throughput drug screen in 47 multiple myeloma cell lines against the NCATS MIPE library collection: SKMM1_PLB cell viability assay (AID 1919863); conditions: SKMM1 myeloma viability, CellTiter-Glo ATP, 48 h; viability: hits give low values; also: nearly all actives have a fitted effect of over 35% in size
Outline: as §2

NIH3T3 = test: Cytotoxic Profiling of Annotated Libraries Using Quantitative High-Throughput Screening (AID 1296008); conditions: Five cell lines viability, CellTiter-Glo ATP luminescence, 48-72 h; max response: hits give low values; also: nearly all actives have a fitted effect of over 60% in size
Outline: as §3
Potency is read from the fitted curve at half-maximal effect; tags tell the direction and shape of the fitted curve.

COc1cc2nccc(Oc3ccc(NC(=O)C4(C(=O)Nc5ccc(F)cc5)CC4)cc3)c2cc1OC
inactive: Potency [4]
active: Potency [3] 1.48 µM | Potency [6] 26.4 µM | Potency [7] 14.8 µM | Potency (HaCat) 16.6 µM and 25.9 µM | Potency (MKL-1) 2.96 µM | Potency (WaGa) 2.09 µM
inconclusive: Potency [1] 37.2 µM [inhibitor, single point] | Potency [2] 23.5 µM [cytotoxic, single point] | Potency [5] 33.2 µM [cytotoxic, single point] | Potency (MCC-13) 16.6 µM [inhibitor, partial curve] | Potency (MKL-2) 0.833 µM [inhibitor, full curve] | Potency (UISO) 2.96 µM [inhibitor, full curve] | Potency (SKOV3) 35.5 µM [cytotoxic, single point]

CN(C)CCCN=c1c2ccccc2n(C)c2[nH]c(=O)n(C)c(=O)c12
active: Potency [8] 23.5 µM | viability (% of DMSO control) [9] 91.5% | Potency (MKL-1) 10.5 µM
inconclusive: Potency [1] 37.2 µM [inhibitor, single point] | Potency [6] 20.9 µM [cytotoxic, partial curve] | Potency (KB-3-1) 14.8 µM [inhibitor, partial curve, poor fit] | Potency (MCC-13) 33.2 µM [inhibitor, single point]

CNC(=O)c1cc(Oc2ccc(NC(=O)Nc3cc(C(C)(C)C)nn3-c3ccc4ncccc4c3)c(F)c2)ccn1
active: Potency [8] 18.7 µM | Potency [4] 9.35 µM | Potency [6] 16.6 µM | Potency [7] 7.43 µM | Potency [11] 14.8 µM | Potency [9] 4.18 µM | Potency (KB-3-1) 9.35 µM and 5.17 µM
inconclusive: Potency [10] 30.6 µM [cytotoxic, single point] | Potency [2] 23.5 µM [cytotoxic, single point] | Potency [3] 0.935 µM [cytotoxic, full curve] | Potency (HaCat) 33.2 µM [inhibitor, single point] | Potency (NIH3T3) 18.4 µM [inhibitor, single point] | Potency (SKOV3) 39.8 µM [cytotoxic, single point]

COc1cc(=C2C=c3ccccc3=N2)[nH]c1=Cc1[nH]c(C)cc1C
inconclusive: Potency [1] 37.2 µM [inhibitor, single point] | Potency [2] 18.7 µM [cytotoxic, partial curve] | Potency (MKL-1) 29.6 µM [inhibitor, single point] | Potency (MKL-2) 20.9 µM [inhibitor, partial curve, poor fit]
active: Potency [8] 14.8 µM | Potency [10] 7.69 µM | Potency [4] 16.6 µM | Potency [5] 0.418 µM | Potency [11] 4.18 µM | Potency [9] 2.09 µM | Potency (NIH3T3) 18.7 µM

Cn1cncc1[C@@](N)(c1ccc(Cl)cc1)c1ccc2c(c1)c(-c1cccc(Cl)c1)cc(=O)n2C
inconclusive: Potency [1] 37.2 µM [inhibitor, single point] | Potency [4] 16.6 µM [cytotoxic, partial curve, poor fit] | Potency [5] 0.526 µM [cytotoxic, full curve] | Potency [6] 20.9 µM [cytotoxic, partial curve, poor fit] | Potency (HaCat) 8.33 µM [inhibitor, full curve] | Potency (NIH3T3) 11.8 µM [inhibitor, partial curve] | Potency (MCC-13) 9.35 µM [inhibitor, partial curve] | Potency (UISO) 4.18 µM [inhibitor, full curve]
active: Potency [2] 18.7 µM | Potency [9] 0.833 µM | Potency (MKL-1) 4.69 µM

C[C@]12CCC(=O)C=C1CC[C@@H]1[C@@H]2[C@@H](O)C[C@@]2(C)[C@H]1CC[C@]2(O)C(=O)CO
inactive: Potency [3]
inconclusive: Potency (HaCat) 23.7 µM [inhibitor, single point] | Potency (SKOV3) 3.16 µM [cytotoxic, partial curve, poor fit]

Cc1c(CN2CCN(C(=O)C(C)C)CC2)sc2c(N3CCOCC3)nc(-c3cnc(N)nc3)nc12
active: Potency [8] 0.469 µM | Potency [5] 0.132 µM | Potency [7] 0.0296 µM | Potency [9] 0.0526 µM | Potency (HaCat) 1.05 µM | Potency (KB-3-1) 0.148 µM
inconclusive: Potency [1] 0.372 µM [inhibitor, full curve] | Potency [2] 0.935 µM [cytotoxic, full curve] | Potency [4] 0.0469 µM [cytotoxic, full curve] | Potency [6] 0.132 µM [cytotoxic, full curve] | Potency (MCC-13) 0.833 µM [inhibitor, partial curve] | Potency (MKL-1) 0.59 µM [inhibitor, full curve] | Potency (MKL-2) 0.372 µM [inhibitor, full curve]
